These are yes or no findings as the source states them, for the method shown. Some results given as binding are weak or reduced against the parent protein; the word gives no strength. For some assays here: Sequences can lack the tags named with a protein.
How the values were obtained:
[1] = molecular target: T1, GST-γ2III-2 (a.a. residues 392-555) (human) (UniProt Q13753); assay: direct ELISA, 100 ng/well coated GST-γ2III fragment
T1 sequence: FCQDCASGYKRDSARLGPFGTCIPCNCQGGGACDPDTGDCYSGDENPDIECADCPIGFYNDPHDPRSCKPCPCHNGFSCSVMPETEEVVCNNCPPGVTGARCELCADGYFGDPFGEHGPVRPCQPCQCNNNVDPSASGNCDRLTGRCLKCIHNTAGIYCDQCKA

[2] = molecular target: T2, GST-γ2III-4 (a.a. residues 392-494) (human) (UniProt Q13753); assay: as above
T2 sequence: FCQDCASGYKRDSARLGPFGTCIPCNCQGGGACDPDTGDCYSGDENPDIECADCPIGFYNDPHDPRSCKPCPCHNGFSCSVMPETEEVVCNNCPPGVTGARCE

[3] = molecular target: GST-γ2III fusion protein (glutathione S-transferase:γ2 DIII fragment fusion protein, human laminin γ2 amino acid residues 392-567) (human); assay: direct ELISA, peptide coated at 50 µg/ml (controls 5 µg/ml), antibody 100 ng/well, A450/620, mean of three ± SD
[4] = molecular target: T3, cyclic peptide X252 (Ln-5 residues 394-415 + R) (human); assay: as above
T3 sequence (peptide, Cys-Cys disulfide bond (cyclic peptide)): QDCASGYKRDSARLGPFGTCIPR

[5] = molecular target: GST-γ2III fusion protein (glutathione S-transferase:γ2 DIII fragment fusion protein, human laminin γ2 amino acid residues 392-567) (human); assay: competition ELISA on coated GST-γ2III (0.25 µg/well); biotinylated mAb 0.05 µg/well, unlabeled competitor mAb 5 µg/well; A405 as % of the well without competitor
[6] = molecular target: GST-γ2III fusion protein (glutathione S-transferase:γ2 DIII fragment fusion protein, human laminin γ2 amino acid residues 392-567) (human); assay: direct ELISA, fusion proteins coated at 100 ng/well, A405 (Example 3, first experiment)
[7] = molecular target: T1, GST-γ2III-2 (a.a. residues 392-555) (human); assay: as above
[8] = molecular target: T2, GST-γ2III-4 (a.a. residues 392-494) (human); assay: as above
[9] = molecular target: GST-γ2III fusion protein (glutathione S-transferase:γ2 DIII fragment fusion protein, human laminin γ2 amino acid residues 392-567) (human); assay: direct ELISA of Example 3, signal as % of the signal on GST-γ2III 392-567 (100 %)
[10] = molecular target: T1, GST-γ2III-2 (a.a. residues 392-555) (human); assay: as above
[11] = molecular target: T2, GST-γ2III-4 (a.a. residues 392-494) (human); assay: as above
[12] = molecular target: GST-γ2III fusion protein (glutathione S-transferase:γ2 DIII fragment fusion protein, human laminin γ2 amino acid residues 392-567) (human); assay: SPR (BIAcore)
[13] = molecular target: GST-γ2III fusion protein (glutathione S-transferase:γ2 DIII fragment fusion protein, human laminin γ2 amino acid residues 392-567) (human); assay: surface plasmon resonance (BIAcore): first step to about 940 RU, then LN-5 antigen (GST-γ2DIII) at 20, 50, 200, 500 and 2000 nM
[14] = molecular target: GST-γ2III fusion protein (glutathione S-transferase:γ2 DIII fragment fusion protein, human laminin γ2 amino acid residues 392-567) (human); assay: surface plasmon resonance (BIAcore): LN-5 antigen (GST-γ2DIII) at 20, 50, 200, 500 and 2000 nM ('Ag binding')
[15] = molecular target: GST-γ2III fusion protein (glutathione S-transferase:γ2 DIII fragment fusion protein, human laminin γ2 amino acid residues 392-567) (human); assay: direct ELISA, fusion proteins coated at 100 ng/well, A405 (Example 3, second experiment)
[16] = molecular target: T1, GST-γ2III-2 (a.a. residues 392-555) (human); assay: as above
[17] = molecular target: T2, GST-γ2III-4 (a.a. residues 392-494) (human); assay: as above
[18] = molecular target: T3, cyclic peptide X252 (Ln-5 residues 394-415 + R) (human); assay: direct ELISA on coated cyclic peptides (legend of FIG. 9)
[19] = molecular target: T3, cyclic peptide X252 (Ln-5 residues 394-415 + R) (human); assay: direct ELISA on coated cyclic peptides
[20] = molecular target: GST-γ2III fusion protein (glutathione S-transferase:γ2 DIII fragment fusion protein, human laminin γ2 amino acid residues 392-567) (human); assay: competition ELISA on coated GST-γ2III; biotinylated 4G1 0.05 µg/well, unlabeled competitor mAb 5 µg/well; % of the well without competitor
[21] = molecular target: GST-γ2III fusion protein (glutathione S-transferase:γ2 DIII fragment fusion protein, human laminin γ2 amino acid residues 392-567) (human); assay: direct ELISA, 100 ng/well coated GST-γ2III
[22] = molecular target: T4, GST-γ2III-7 (a.a. residues 461-653) (human) (UniProt Q13753); assay: direct ELISA, 100 ng/well coated GST-γ2III fragment
T4 sequence: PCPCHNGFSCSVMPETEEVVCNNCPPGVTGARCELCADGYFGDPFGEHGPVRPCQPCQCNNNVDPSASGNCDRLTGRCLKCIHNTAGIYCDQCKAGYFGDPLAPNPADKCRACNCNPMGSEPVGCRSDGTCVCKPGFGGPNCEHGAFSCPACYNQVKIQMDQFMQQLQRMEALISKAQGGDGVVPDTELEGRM

[23] = molecular target: T5, GST-γ2III-20 (a.a. residues 461-534) (human) (UniProt Q13753); assay: as above
T5 sequence: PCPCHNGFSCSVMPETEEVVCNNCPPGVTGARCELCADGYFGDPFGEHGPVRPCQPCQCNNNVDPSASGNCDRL

[24] = molecular target: T4, GST-γ2III-7 (a.a. residues 461-653) (human); assay: direct ELISA, fusion proteins coated at 100 ng/well, A405 (Example 3, first experiment)
[25] = molecular target: T4, GST-γ2III-7 (a.a. residues 461-653) (human); assay: direct ELISA of Example 3, signal as % of the signal on GST-γ2III 392-567 (100 %)
[26] = molecular target: T5, GST-γ2III-20 (a.a. residues 461-534) (human); assay: as above
[27] = molecular target: T4, GST-γ2III-7 (a.a. residues 461-653) (human); assay: direct ELISA, fusion proteins coated at 100 ng/well, A405 (Example 3, second experiment)
[28] = molecular target: T5, GST-γ2III-20 (a.a. residues 461-534) (human); assay: as above
[29] = molecular target: GST-γ2III fusion protein (glutathione S-transferase:γ2 DIII fragment fusion protein, human laminin γ2 amino acid residues 392-567) (human); assay: competition ELISA on coated GST-γ2III; competitor of biotinylated mAb 5D5
[30] = molecular target: GST-γ2III fusion protein (glutathione S-transferase:γ2 DIII fragment fusion protein, human laminin γ2 amino acid residues 392-567) (human); assay: surface plasmon resonance (BIAcore): first step to about 1000 RU, then LN-5 antigen (GST-γ2DIII) at 20, 50, 200, 500 and 2000 nM ('Ag binding')

Binder | binding [1] | binding [3] | binding [5] | binding [6] | binding [7] | binding [8] | binding [9] | binding [10] | binding [11] | binding [12] | binding [15] | binding [16] | binding [17] | binding [21] | other results
mAb 4G1 (antibody, V domains shown) VH: EVKLEESGGGLVQPGGSMKLSCVASGFTFSNFWMNWVRQSPEKGLEWVAEIRLKSNNYATHYAESLKGRFTISRDDSKSNVYLQMNNLRPEDTGIYYCTRDYYGSSFAYWGQGTLVTVSA VL: DIVMTQAAFSNPVTLGTSASISCRSSKSLLHNIGITYLFWYLQKPGQSPQLLIYQMSKLASGVPDRFSGSGSGTDFTLRISRVEAEDVGIYYCAQNLELPPTFGSGTKLEIK | binds | binds | binds | binds | binds | binds | binds | binds | binds | binds | binds | binds | binds | binds | binding [2]: binds; binding [4]: binds; binding [13]: binds; binding [14]: binds; binding [18]: binds; binding [19]: binds; binding [20]: binds
mAb 6C12 (antibody, V domains shown) VH: DVHLQESGPGLVKPSQSLSLTCTVTGYSITSDYAWNWIRQFPGNRLEWMGYITYSGGTNYNPSLKSRISFTRDTSKNQFFLQLNSVTTEDTATYYCANNFYGNFFDYWGQGTTLTVSS VL: QIVLTQSPAIMSASPGEKVTMTCSASSSVSYIHWYQQKSGTSPKRWIYDTSKLASGVPARFSGSGSGTSYSLTISSMQAEDAATYYCQQWSSSPPTFGGGTKLEIK | binds | binds | binds | binds | binds | no binding | binds | binds | no binding | binds | binds | binds | no binding | binds | binding [22]: binds; binding [23]: binds; binding [24]: binds; binding [25]: binds; binding [26]: binds; binding [27]: binds; binding [28]: binds; binding [29]: binds; binding [30]: binds

From patent US20070065447A1
